# From PubChem BioAssay AID360 (National Center for Advancing Translational Sciences (NCATS), 2006)
# Screen size: about 48,000 compounds; about 550 (1.1%) were called active. About 4% were inconclusive and are not listed. No stated cut-off is given here; in the data, active means potency below about 15 µM; inconclusive means mostly about 16 µM to 33 µM; inactive means weaker than that. Some of the results follow.
# Target: Lysosomal acid glucosylceramidase (Homo sapiens) (UniProt P04062)
# Assay: Glucocerebrosidase;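 further: the screen sought inhibitors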
# Settings: purified enzyme, resorufin glucoside fluorescence (screen aimed at inhibitors), 20 min
# Outline: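 Wild-type enzyme at 0.2 nM final in 50mM citric acid/KH2PO4, 10mM sodium taurocholate, 0.01% tween-20, pH 5.9, with resorufin beta-D-glucopyranoside at 30 uM final. Compounds titrated, 20 min at RT, red fluorescence read; AC50 from titration.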
# Potency means the concentration at half of the fitted maximal effect.
# Chain of UniProt P04062 (P04062 whole entry, looked up): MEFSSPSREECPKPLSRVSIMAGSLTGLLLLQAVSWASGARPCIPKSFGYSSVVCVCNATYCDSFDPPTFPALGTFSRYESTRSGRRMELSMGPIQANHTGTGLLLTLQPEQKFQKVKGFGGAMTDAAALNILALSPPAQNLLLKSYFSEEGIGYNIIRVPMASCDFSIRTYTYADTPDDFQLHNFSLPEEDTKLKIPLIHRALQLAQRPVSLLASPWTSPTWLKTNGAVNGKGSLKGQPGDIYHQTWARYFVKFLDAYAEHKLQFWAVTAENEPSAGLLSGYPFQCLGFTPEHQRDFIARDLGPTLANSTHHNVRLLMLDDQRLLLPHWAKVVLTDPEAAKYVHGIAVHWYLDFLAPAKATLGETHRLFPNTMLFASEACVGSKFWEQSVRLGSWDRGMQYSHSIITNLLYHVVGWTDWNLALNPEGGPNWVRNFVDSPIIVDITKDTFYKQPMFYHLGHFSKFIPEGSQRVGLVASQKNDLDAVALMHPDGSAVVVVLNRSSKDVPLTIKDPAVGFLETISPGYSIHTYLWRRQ
row,Structure (SMILES),Potency
1,Cn1c(=O)c(C(=O)CSc2nncs2)c(N)n(Cc2ccccc2)c1=O,inactive: > 76.9 µM
2,C=CCN1CC(O)=C(c2ccccc2)C1=N,inactive: > 76.9 µM
3,N#Cc1cnc(Nc2nc3ccccc3o2)nc1-c1ccccc1,inactive: > 76.9 µM
4,O=C(NCc1ccco1)c1ccc2c(=O)n(CCC3=CCCCC3)c(=O)[nH]c2c1,inactive: > 76.9 µM
5,CC1(C)Cc2c(sc3c2c(=N)n(Cc2ccco2)c(=O)n3CC(=O)Nc2ccccc2)CO1,inactive: > 76.9 µM
6,CC(=O)NC1C(=O)N=C(SCC(=O)NC2CCCCC2)NC1=O (configuration not stated),inactive: > 76.9 µM
7,Cc1nc2ccc(S(=O)(=O)NCC(=O)N(C)Cc3ccco3)cc2s1,inactive: > 76.9 µM
8,CCCCNC(=O)c1ccc(NC(=O)C2CCCO2)cc1 (configuration not stated),inactive: > 76.9 µM
9,CN(C(=O)C1CCCO1)c1nnc(-c2ccccn2)s1 (configuration not stated),inactive: > 76.9 µM
10,COc1ccccc1-n1cnnc1SC1CCOC1=O (configuration not stated),inactive: > 76.9 µM
11,O=c1oc2ccccc2n1CCCCCn1c(=O)oc2ccccc21,inactive: > 76.9 µM
12,Cn1c(C(=O)N(Cc2ccccc2)Cc2ccccn2)cc2sccc21,inactive
13,Cc1cccc(-n2c(SCC(=O)NCc3ccco3)nc3ccccc3c2=O)c1,inactive: > 76.9 µM
14,CC(C)(C)C(=O)Oc1cc(N)n(S(=O)(=O)c2ccccc2)n1,inactive: > 76.9 µM
15,COC(=O)CSc1ncc(C#N)c(N)n1,inactive: > 76.9 µM
16,CCCn1c(NC(=O)C2COc3ccccc3O2)nc2ccccc21 (configuration not stated),inactive: > 76.9 µM
17,CC(C)n1c(NCc2cccs2)nc2ccccc21,inactive: > 76.9 µM
18,Cc1c(OCc2nn[nH]n2)ccc2c3c(c(=O)oc12)CCCC3,inactive: > 76.9 µM
19,O=C(CCSc1nc(-c2ccco2)cc(C(F)(F)F)n1)NCCc1ccccc1,inactive: > 76.9 µM
20,CCc1nc2oc3ccccc3c(=O)c2c(=O)n1Cc1ccccc1,inactive: > 76.9 µM
21,CCn1c(SCC(=O)Nc2cc(C)on2)nnc1-c1cccnc1,inactive: > 76.9 µM
22,Clc1ccc(C2CC(c3ccco3)n3ncnc3N2)cc1Cl (configuration not stated),inactive: > 76.9 µM
23,CCC(c1nnnn1Cc1ccc2c(c1)OCO2)N1CCN(c2ccc(OC)cc2)CC1 (configuration not stated),inactive: > 76.9 µM

row,Structure (SMILES),Potency
1,CC(=O)Nc1ccc(S(=O)(=O)N2CCSC2c2ccc(C)cc2)cc1 (configuration not stated),inactive: > 15.4 µM
2,COC(=O)c1[nH]nc2c1C(=O)N(C1CCCCC1)C2=O,inactive: > 76.9 µM
3,Cc1cc(C)n(C(=O)CNc2cccc(Cl)c2C)n1,inactive: > 76.9 µM
4,CN(c1ccc(C(=O)N2CCN(c3ccc(F)cc3)CC2)cc1)S(C)(=O)=O,inactive: > 76.9 µM
5,Cc1cc(Nc2nc3ccccc3[nH]c2=O)n(-c2ccccc2)n1,inactive: > 76.9 µM
6,COc1ccc(C2C(C(C)=O)=C(O)C(=O)N2c2cccnc2)c(OC)c1 (configuration not stated),inactive: > 76.9 µM
7,CCc1c(C)nc2ncnn2c1N1CCCC(C(=O)NCCc2ccc(OC)cc2)C1 (configuration not stated),inactive: > 76.9 µM
8,CN(CC(O)COCc1cccs1)C1CCCCC1 (configuration not stated),inactive: > 76.9 µM
9,Cc1c(Br)cc(C(=O)NCc2ccco2)c(C)c1C,inactive: > 76.9 µM
10,Cc1cc(NC(=O)c2ccc(COc3ccc(Cl)c(C)c3)o2)no1,inactive: > 76.9 µM
11,CC1(c2ccc(Cl)cc2)NC(=O)N(CC(=O)N2CCCC2)C1=O (configuration not stated),inactive: > 76.9 µM
12,N#Cc1nc(-c2ccc(OCc3ccccc3)cc2)oc1NCCCN1CCOCC1,inactive
13,CC(C)N(CCNC(=O)C1CCC(=O)N1Cc1ccc(F)cc1)Cc1ccccc1 (configuration not stated),inactive: > 76.9 µM
14,O=C(CNC(=O)c1ccco1)NCC(=O)OCc1ccccc1Br,inactive: > 76.9 µM
15,CC(C)(C)n1ncc2c(=O)n(CC(=O)c3ccccc3)cnc21,inactive: > 76.9 µM
16,COc1ccc(Cl)cc1NC(=O)C1CC(=O)N(c2ccc(F)cc2)C1 (configuration not stated),inactive: > 76.9 µM
17,O=C(O)C1CCCN1S(=O)(=O)c1ccc2[nH]c(=O)c(=O)[nH]c2c1 (configuration not stated),inactive: > 76.9 µM
18,Cc1ccc(Cl)cc1N1CCN(S(=O)(=O)c2ccc3c(c2)oc(=O)n3C)CC1,inactive: > 76.9 µM
19,O=C(CSc1nnc(-c2ccccn2)n1Cc1ccccc1)NC1CCCC1,inactive: > 76.9 µM
20,Cc1cc2oc(=O)cc(CN3CCC(C)CC3)c2cc1Cl,inactive: > 76.9 µM
21,Cc1ccc(C2CC(=O)Nc3sc(C(N)=O)c(N)c32)cc1 (configuration not stated),inactive: > 76.9 µM
22,O=C(NC1CCCCC1)N(CCN1CCCC1)Cc1cc2cc3c(cc2[nH]c1=O)OCCO3,inactive
23,CS(=O)(=O)N(CC(=O)NCc1ccncc1)Cc1ccc(Cl)cc1,inactive: > 76.9 µM

row,Structure (SMILES),Potency
1,CCCCc1ccc(S(=O)(=O)Nc2cc(C)on2)cc1,inactive: > 76.9 µM
2,CC(C)CCNc1nc2c(c(=O)[nH]c(=O)n2C)n1CC(O)COC(C)C (configuration not stated),inactive: > 76.9 µM
3,COC(=O)c1cc2c(cc1Cl)SC(=NCCCN1CCOCC1)NS2(=O)=O,active: 8.27 µM
4,CCN(CC(=O)NCc1ccc(F)cc1)Cc1nc2ccccc2c(=O)[nH]1,inactive: > 76.9 µM
5,COc1ccc(N2CCN(Cc3nc(N)nc(Nc4ccc(C)c(Cl)c4)n3)CC2)cc1,active: 4.02 µM
6,O=C(Nc1ccc2c(c1)OCO2)c1cccs1,inactive: > 76.9 µM
7,CCCNC(=O)c1c[nH]c2ccc(S(=O)(=O)N(C)c3ccc(OCC)cc3)cc2c1=O,inactive: > 76.9 µM
8,CCOc1ccc(-c2cc(CCCC(=O)Nc3cc(OC)ccc3OC)no2)cc1,inactive: > 76.9 µM
9,O=C(O)c1cccnc1Oc1ccccc1,inactive: > 76.9 µM
10,OCCN1CCN(C(c2cccs2)c2ccc3cccnc3c2O)CC1 (configuration not stated),inactive
11,O=S(=O)(NCC1OCCc2ccccc21)c1ccc(S(=O)(=O)N2CCOCC2)cc1 (configuration not stated),inactive: > 76.9 µM
12,O=C1OC2CC3CC1CC(O)(C3)C2 (configuration not stated),inactive: > 76.9 µM
13,O=C(O)c1cccc(C(=O)Nc2cccc(NC(=O)C3CCCO3)c2)c1 (configuration not stated),inactive: > 76.9 µM
14,CCOC(=O)C1CCCN(Cc2ccc3c(c2)OCO3)C1 (configuration not stated),inactive: > 76.9 µM
15,O=C(CCN1C(=O)C2C3C=CC(C3)C2C1=O)Nc1ccccn1 (configuration not stated),inactive: > 76.9 µM
16,Nn1c(SCC(=O)Nc2ccc(F)cc2)nnc1C1CCCCC1,inactive: > 76.9 µM
17,Cc1cc(C)n(C(=O)CNC(=O)c2ccco2)n1,inactive: > 76.9 µM
18,CCOc1ccc(C2C3=C(CCCC3=O)Nc3nc(C(F)(F)F)nn32)cc1OC (configuration not stated),inactive: > 76.9 µM
19,CC1CC(=O)c2cnc(NCC3CCCO3)nc2C1 (configuration not stated),inactive: > 76.9 µM
20,Cc1cc(-c2ccccc2)nc2cc(C(=O)NCCCn3ccnc3)nn12,inactive: > 76.9 µM
21,C=CCOc1ccc(C2c3c(oc4ccccc4c3=O)C(=O)N2CCCN2CCOCC2)cc1 (configuration not stated),inactive
22,O=C1CC(=O)CC(c2ccco2)C1,inactive: > 76.9 µM
23,Cc1nc(N)sc1-c1nnc(SCC(=O)Nc2nccs2)n1C,inactive: > 76.9 µM

row,Structure (SMILES),Potency
1,CCOC(=O)CNC(=O)CSc1nc2cccnc2n1C,inactive: > 76.9 µM
2,Cc1ccc(NC(=O)CCSc2nnnn2-c2ccc3c(c2)OCO3)cc1C,inactive: > 76.9 µM
3,CS(=O)(=O)NCCC1=CCCCC1,inactive: > 76.9 µM
4,O=C(Nc1ccc(N2CCN(C(=O)c3ccco3)CC2)cc1)c1ccc2c(c1)OCO2,inactive: > 76.9 µM
5,CCN1CCN(C(=O)C2=C(C(=O)O)CCCC2)CC1,inactive: > 76.9 µM
6,Cn1c(CCN2CCOCC2)nc2cc(NC(=O)COc3ccc(Cl)cc3)ccc21,inactive: > 76.9 µM
7,O=C1c2ccccc2S(=O)(=O)N1CC(O)Cn1ccc2ccccc21 (configuration not stated),inactive: > 76.9 µM
8,Cc1cc(OCC(=O)O)c2cccc(C)c2n1,inactive: > 76.9 µM
9,CCC(=O)N1CCc2cc(S(=O)(=O)CCC(=O)Nc3ccc(F)c(F)c3)ccc21,inactive: > 76.9 µM
10,Cc1ccc(N2CC(C(N)=O)CC2=O)cc1C (configuration not stated),inactive: > 76.9 µM
11,COC(=O)c1sc2cnccc2c1N,inactive: > 76.9 µM
12,Cc1noc(C)c1COc1ccc(C(=O)OC(C)C(=O)Nc2ccc(N3CCOCC3)cc2)cc1 (configuration not stated),inactive: > 76.9 µM
13,COc1ccc(OC)c(C2=NOC(C(=O)NCC3CCCO3)C2)c1 (configuration not stated),inactive: > 76.9 µM
14,FC(F)(F)c1cccc(NCc2cn3cccnc3n2)c1,inactive: > 76.9 µM
15,O=C(Nc1nnc(-c2ccccc2)o1)c1ccc(Cl)cc1,inactive: > 76.9 µM
16,N#Cc1c(NC(=O)CSc2ncnc3c2cnn3-c2ccccc2Cl)sc2c1CCCC2,inactive: > 76.9 µM
17,CCCCN(CC)C(=O)Cc1c(C(=O)O)[nH]c2ccc(Cl)cc12,inactive: > 76.9 µM
18,CCn1c(COc2ccc(OC)cc2)nnc1SCC(=O)Nc1cc(OC)ccc1OC,inactive: > 76.9 µM
19,COC(=O)[C@H](C)NC(=O)Nc1cccc(C(F)(F)F)c1,inactive: > 76.9 µM
20,CN1CC(=O)N(CC(=O)Nc2ccc(Cl)c(C(F)(F)F)c2)C1=O,inactive: > 76.9 µM
21,CCOC(=O)C1CCCN(CC(=O)/C=C2/N(C)c3ccccc3C2(C)C)C1 (configuration not stated),inactive: > 76.9 µM
22,Cc1cc(C)cc(OCc2nnc(SCC(=O)N3CCN(c4ccccc4)CC3)o2)c1,inactive: > 76.9 µM
23,CCOC(=O)C1=C(Cn2cnc3ccccc32)NC(=O)NC1c1cc(C)ccc1C (configuration not stated),inactive: > 76.9 µM
